Data: the supplement of paper PMC4604168 (melanoma cell lines)
Some of the results follow. Many values rest on one well or one pass, so single values are uncertain.

These compounds were tested on C32 (assay: cell count relative to DMSO control; melanoma cells; higher = more viable cells). Conditions: library dose: low library concentration; 72 h.
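Further: cell number obtained by counting DAPI-stained nuclei in high-throughput microscope images with image analysis software, screen run in 1,536-well plates.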

Row | Structure (SMILES) | cell count [%]
1 | Nc1cccc2c1CN(C1CCC(=O)NC1=O)C2=O (configuration not stated) [lenalidomide] + CCN(CC)CCCCNc1ncc2cc(-c3cc(OC)cc(OC)c3)c(NC(=O)NC(C)(C)C)nc2n1 [PD173074] (first compound 1 µM, partner dose 0.1 µM) | 91.9
2 | COCC[n+]1c2c(n(Cc3cnccn3)c1C)C(=O)c1ccccc1C2=O + COc1ccc2c(c1)CCC1C2CCC2(C)C(NCCCCCCN3C(=O)C=CC3=O)CCC12 [U73122] (first compound 0.0004 µM, partner dose 0.4 µM) | 101
3 | Cn1c(Nc2ccc(C(F)(F)F)cc2)nc2cc(Oc3ccnc(-c4ncc(C(F)(F)F)[nH]4)c3)ccc21 + O=C(Nc1ccccc1)c1cc([N+](=O)[O-])ccc1Cl [GW9662] (first compound 0.08 µM, partner dose 2 µM) | 81.6
4 | C#Cc1cccc(Nc2ncnc3cc(OCCOC)c(OCCOC)cc23)c1 [erlotinib] + CC(C)CCN1c2nc(Nc3cc(F)c(O)c(F)c3)ncc2N(C)C(=O)C1C [BID1870] (first compound 0.8 µM, partner dose 0.2 µM) | 97.2
5 | Nc1cccc2c1CN(C1CCC(=O)NC1=O)C2=O (configuration not stated) [lenalidomide] + O=C(O)C(=O)Nc1sc2c(c1C(=O)O)CCNC2 [TCS401] (first compound 1 µM, partner dose 1.66667 µM) | 94.3
6 | C#Cc1cccc(Nc2ncnc3cc(OCCOC)c(OCCOC)cc23)c1 [erlotinib] + COC(=O)c1sccc1S(=O)(=O)Nc1ccc(Nc2ccccc2)cc1OC [GSK0660] (first compound 0.8 µM, partner dose 1 µM) | 107
7 | COCC[n+]1c2c(n(Cc3cnccn3)c1C)C(=O)c1ccccc1C2=O + COC(=O)c1sccc1S(=O)(=O)Nc1ccc(Nc2ccccc2)cc1OC [GSK0660] (first compound 0.0004 µM, partner dose 1 µM) | 92.2
8 | COCC[n+]1c2c(n(Cc3cnccn3)c1C)C(=O)c1ccccc1C2=O + c1cc(-c2cnn3cc(-c4ccc(OCCN5CCCCC5)cc4)cnc23)ccn1 [Dorsomorphin] (first compound 0.0004 µM, partner dose 0.4 µM) | 88.8
9 | COCC[n+]1c2c(n(Cc3cnccn3)c1C)C(=O)c1ccccc1C2=O + COc1cc(N2CCC(N3CCN(C)CC3)CC2)ccc1Nc1ncc(Cl)c(Nc2ccccc2S(=O)(=O)C(C)C)n1 [NVP-TAE684] (first compound 0.0004 µM, partner dose 0.08 µM) | 95.4
10 | Cn1c(Nc2ccc(C(F)(F)F)cc2)nc2cc(Oc3ccnc(-c4ncc(C(F)(F)F)[nH]4)c3)ccc21 + COc1ccc(-c2ccc3c(N4CCOCC4)nc(N4C[C@@H](C)O[C@@H](C)C4)nc3n2)cc1CO [KU0063794] (first compound 0.08 µM, partner dose 0.02 µM) | 87.5
11 | C#Cc1cccc(Nc2ncnc3cc(OCCOC)c(OCCOC)cc23)c1 [erlotinib] + Oc1cc(-c2nc(-c3ccccc3)[nH]c2-c2ccncc2)ccc1Cl [L779450] (first compound 0.8 µM, partner dose 0.2 µM) | 83.8
12 | Nc1cccc2c1CN(C1CCC(=O)NC1=O)C2=O (configuration not stated) [lenalidomide] + O=C(Nc1ccccc1)c1cc([N+](=O)[O-])ccc1Cl [GW9662] (first compound 1 µM, partner dose 2 µM) | 97.3
13 | Nc1cccc2c1CN(C1CCC(=O)NC1=O)C2=O (configuration not stated) [lenalidomide] + Oc1cc(-c2nc(-c3ccccc3)[nH]c2-c2ccncc2)ccc1Cl [L779450] (first compound 1 µM, partner dose 0.2 µM) | 76.8
14 | O=C(CCCCCCC(=O)Nc1ccccc1)NO [vorinostat] + Oc1cc(-c2nc(-c3ccccc3)[nH]c2-c2ccncc2)ccc1Cl [L779450] (first compound 0.08 µM, partner dose 0.2 µM) | 83
15 | Nc1cccc2c1CN(C1CCC(=O)NC1=O)C2=O (configuration not stated) [lenalidomide] + COc1cc(N2CCC(N3CCN(C)CC3)CC2)ccc1Nc1ncc(Cl)c(Nc2ccccc2S(=O)(=O)C(C)C)n1 [NVP-TAE684] (first compound 1 µM, partner dose 0.08 µM) | 78.7
16 | COCC[n+]1c2c(n(Cc3cnccn3)c1C)C(=O)c1ccccc1C2=O + Cc1cc([N+](=O)[O-])ccc1NS(=O)(=O)c1cc(Cl)ccc1Cl [FH535] (first compound 0.0004 µM, partner dose 1 µM) | 100
17 | O=C(CCCCCCC(=O)Nc1ccccc1)NO [vorinostat] + COC(=O)c1sccc1S(=O)(=O)Nc1ccc(Nc2ccccc2)cc1OC [GSK0660] (first compound 0.08 µM, partner dose 1 µM) | 116
18 | Nc1cccc2c1CN(C1CCC(=O)NC1=O)C2=O (configuration not stated) [lenalidomide] + Cn1cc(/C=C2\C(=O)Nc3cccnc32)c2ccccc21 [GW441756] (first compound 1 µM, partner dose 0.4 µM) | 108
19 | C#Cc1cccc(Nc2ncnc3cc(OCCOC)c(OCCOC)cc23)c1 [erlotinib] + COc1ccc2c(c1)CCC1C2CCC2(C)C(NCCCCCCN3C(=O)C=CC3=O)CCC12 [U73122] (first compound 0.8 µM, partner dose 0.4 µM) | 97.4
20 | COCC[n+]1c2c(n(Cc3cnccn3)c1C)C(=O)c1ccccc1C2=O + O=C(O)C(=O)Nc1sc2c(c1C(=O)O)CCNC2 [TCS401] (first compound 0.0004 µM, partner dose 1.66667 µM) | 92.5
21 | O=C(CCCCCCC(=O)Nc1ccccc1)NO [vorinostat] + O=S(=O)(c1ccccc1)N(CC(F)(F)F)c1ccc(C(O)(C(F)(F)F)C(F)(F)F)cc1 [T0901317] (first compound 0.08 µM, partner dose 1.4 µM) | 94.6
22 | COCC[n+]1c2c(n(Cc3cnccn3)c1C)C(=O)c1ccccc1C2=O + O=C(Nc1ccccc1)c1cc([N+](=O)[O-])ccc1Cl [GW9662] (first compound 0.0004 µM, partner dose 2 µM) | 115
